167 variants from the RNAGym collection of RNA variant scans (doi:10.7554/elife.90254) can be followed below.

The labels stand for the following.
B1: LINE1-full (parent)
chain: UACGUAGGUGGUUUUCCCCUGAUAGUGCUAAGGGGGCCUGGAAGUUUGGACUGGGCAGAGCUCAACACAGCGUGGCAAAGUGGCUGUGGCUAGACUGCCUCUCUGGAUUCCUCGUCACUCAGCAGGGCAUCUCUGAGAGAAAUGCC

Read counts are not given, so values of variants with three or more changes are uncertain.

This data set covers variants of B1. Briefly: self-cleavage, relative activity (ratio to wild type); higher = more cleavage; in vitro, sequencing; the parent is a self-cleaving ribozyme.
For the variant U14C U23C G126C, the self-cleavage is 1.17. In the case of U14C U20A U81C U115G, the self-cleavage came to 0. Regarding U14C G34A A64G C116U, the self-cleavage stood at 0.2. As for U14C U46C U85C, the self-cleavage was found to be 0. On to U14C C76U A107G, for which the self-cleavage worked out at 1.93.

With U14C U39C U96C A129G, the self-cleavage was 0. As to U14C U39C A94U, the self-cleavage was determined as 0.24. In the case of U14C G48A A77G it was 2; in that of U14C G58A U102C U115C, 0.14; in that of U14C U47C A69G, 0.

As to U14C U45C A79G C84U U87C G89U C98G A124G A129G, the self-cleavage is 0.15. On to U14C U39A A138G, for which the self-cleavage was 1.15. Take U14C U23C G86A C116U: the self-cleavage worked out at 0.11.

U14C U20C C110U U112C A117G A138G: the self-cleavage is 0.38. U14C U45G A138U A140U: the self-cleavage came to 1.53. For the variant U14C U46C A79G C103A A124U, the self-cleavage is 1. In the case of U14C U62A A140G U143C, the self-cleavage is 0.17.

In the case of U14C G27A U115C, the self-cleavage is 1.42. Regarding U14C G36U A64G U104A, the self-cleavage was 0.26. Next, U14C G21U G34U A64G A140U: 0.46; U14C C38U U119C U143A: 1.6.

With U14C U26G A42G, the self-cleavage came to 0.67.

On to U14C U47A G75A U87C G135A, for which the self-cleavage was 0.23. In the case of U14C U29A U73C U134C A136U it was 1.31; in that of U14C U39A A78U A124U A140G U143C, 2.84. For U14C G32C U91A G114A, the self-cleavage stood at 0.54. Take U14C U15A G114A: the self-cleavage turned out to be 0.63. Turning to U14C U47C A107G C133A A142G, the self-cleavage came out at 0.71. Next, U14C U15C U20C A64G U81G: 0. Turning to U14C U29C A77G, the self-cleavage turned out to be 0.36. Regarding U14C G36A A57G U104A, the self-cleavage came out at 0.33. In the case of U14C U20C A67G, the self-cleavage turned out to be 0.21.

Consider U14C U62C U87C U96A C110U, for which the self-cleavage came to 0.19. In the case of U14C U45C A67G A78G it was 0; in that of U14C G44A C71G, 0.46.

Turning to U14C U45C C71U U119A, the self-cleavage was found to be 1.21. For the variant U14C G40U A50G U130C, the self-cleavage was 1.24. U14C C38U U46C: the self-cleavage stood at 1.36. For the variant U14C U39C C113A U130C, the self-cleavage is 1.45. U14C G34U A43U U115C A121G A142U: the self-cleavage was 1.42. Regarding U14C U73A C113U, the self-cleavage was 1.22. Next, U14C G53A U85C A136G U143A: 0.18; U14C G34U U52A A141G: 1.6.

U14C U20A U87A: the self-cleavage worked out at 0.35. For U14C U20G C146A, the self-cleavage was found to be 1.4. In the case of U14C G32U A129G it was 1.27; in that of U14C G25U U132C, 1.11.

Turning to U14C U45A A57U, the self-cleavage was found to be 0.05. Consider U14C U46C U87C, for which the self-cleavage amounted to 0.41. Next, U14C U26C U87A: 0.16; U14C U47A U87C: 0.27. In the case of U14C U45C U108C G125U, the self-cleavage turned out to be 1.39. In the case of U14C U26A C37A A78G U96C it was 0.06.

For U14C U45C U104A U132A A141G, the self-cleavage is 0.92. For the variant U14C U20C A78G A141G, the self-cleavage is 1.57.

For U14C U47C A78G C103U G135U, the self-cleavage came to 1.84. In the case of U14C G72A A79G it was 0.59. Next, U14C U45G U47C A57U G86A A140G: 0.07; U14C U62A U81C: 0.14. Regarding U14C U26A A79U, the self-cleavage came to 1.49. In the case of U14C U15C U109C A141G, the self-cleavage stood at 1.36. In the case of U14C U39A A117U it was 0.97; in that of U14C C51U A140U, 0.97; in that of U14C U62C U87A A140G, 0.05. Take U14C U46C U52A U102A A141U: the self-cleavage worked out at 0.87. Turning to U14C G88A U109C U132A, the self-cleavage stood at 0.07. In the case of U14C C51A U134G A141G, the self-cleavage was 1.5.

U14C U39A U91C U100A C110U: the self-cleavage was found to be 0.07. On to U14C U26C A50G, for which the self-cleavage was 0.48.

As for U14C U26C A67G A69G A141G, the self-cleavage amounted to 0. Next, U14C G32A U132C: 1.31; U14C G126U A136G: 1.41. With U14C U45G G122A, the self-cleavage was found to be 0.63. On to U14C C68U A79G U96A A141G, for which the self-cleavage was 0.05. Regarding U14C U39A A77U U115C A140U, the self-cleavage is 0.99.

For the variant U14C G53A U96C U134C A142C, the self-cleavage amounted to 0.06. U14C U62A U132A: the self-cleavage was found to be 0.09. Turning to U14C U15C A79G, the self-cleavage was found to be 1.67.

Take U14C U15A U39A G72A: the self-cleavage is 1.18. Consider U14C U39G A141G, for which the self-cleavage amounted to 1.37.

Take U14C G86A U132C: the self-cleavage is 0.15. For U14C U47A A69U G72A A92G A141G A142G, the self-cleavage amounted to 0.1. As to U14C U23C U81C, the self-cleavage worked out at 0.92.

In the case of U14C U39A A50G, the self-cleavage is 0.83.

Take U14C G36A A129G U143C: the self-cleavage came to 1.29. As to U14C G74A U134C, the self-cleavage was 0.96. As for U14C U47C A77G U132C, the self-cleavage is 1.41.

Take U14C G35A A78U U96C: the self-cleavage came to 0.1. In the case of U14C U52C G89U U119C A129G, the self-cleavage turned out to be 0.23. U14C U15A U52C A142C: the self-cleavage was found to be 0.82. Consider U14C G60A U96A U102C U132C A140U, for which the self-cleavage is 0.

For the variant U14C G32C A42G U47C U115A A117G, the self-cleavage was found to be 0. With U14C U20C A59G A67C U85A A138G, the self-cleavage was determined as 0. For U14C U45C A64G A140G, the self-cleavage was 0.34. As for U14C U39C U62A, the self-cleavage stood at 0.07. As to U14C G53U U104C U115C, the self-cleavage is 1.95. In the case of U14C U26C A64U G83U A141G, the self-cleavage amounted to 0.46. Turning to U14C U62A U87C G126A, the self-cleavage worked out at 0.09. U14C G74A A94G: the self-cleavage stood at 0. For the variant U14C U29C U81A A136U U143G, the self-cleavage is 2.63.

With U14C U46C A117G, the self-cleavage was determined as 1.53. With U14C G106A U115C, the self-cleavage was 1.01. On to U14C U15C U62C A67G A77C U81A A117C, for which the self-cleavage stood at 0.

U14C U23C C37G A77U: the self-cleavage is 0.51. In the case of U14C G105A U132C A142C it was 1.29; in that of U14C G60A U143A, 0.04. Take U14C U62C A117G G126A C146U: the self-cleavage worked out at 0.11.

As to U14C U20A A69G U109G, the self-cleavage is 0. Take U14C G48A U87C: the self-cleavage is 0.21. U14C U26A A78G: the self-cleavage worked out at 0.56.

U14C U39A A140G: the self-cleavage is 1.42. Next, U14C G89C U109C: 0.06; U14C U26A A42G A57C U81A: 0.09. With U14C U23C C37G A94G G106A A138G, the self-cleavage was 0.5. In the case of U14C U26C A65U U112G it was 0; in that of U14C U73A U81C U85A A94G U102C, 0. Regarding U14C C51U A79U, the self-cleavage came to 0.25. Regarding U14C U73A U85A, the self-cleavage was 0.05. In the case of U14C U46C A69G it was 0.19; in that of U14C U26A U104G A141C, 0.39. For U14C U45C A50C U73A G126U, the self-cleavage amounted to 2.63. As to U14C G25A A31U U100A U104C A142G, the self-cleavage turned out to be 2.04.

Take U14C U39C U45C: the self-cleavage was determined as 1.63. Take U14C G36A U39A: the self-cleavage was 1.03. In the case of U14C U45A A64C U85C U134A A140G it was 0.08; in that of U14C U20C U132C, 1.39; in that of U14C U73A U132A, 1.72. On to U14C U45C G97A U108A A136U A142G, for which the self-cleavage turned out to be 0.1.

With U14C U45C G114A, the self-cleavage was found to be 1.07. Take U14C U39C A121G: the self-cleavage is 2.04.

With U14C U62A A117G, the self-cleavage amounted to 0.1.

Regarding U14C U26C U46C, the self-cleavage is 1.48. In the case of U14C U39C A42G U109C C145A, the self-cleavage worked out at 0.

With U14C U52G A78G A121U, the self-cleavage is 0.89. Take U14C U73C U85C U112C: the self-cleavage worked out at 0. For U14C U23C U91C A136U, the self-cleavage was 1.23. On to U14C U26C A65U U91C U100C G127A, for which the self-cleavage worked out at 0.69. As to U14C U15C A59U A69G, the self-cleavage turned out to be 0.74. As to U14C U20C U87C, the self-cleavage came out at 0. In the case of U14C U62C U85C, the self-cleavage turned out to be 0.14.

U14C U52A G60C C110A A124U U130A: the self-cleavage came out at 0.04. U14C G40A U73A U119C: the self-cleavage is 0.96.

U14C U39C U87A U96A: the self-cleavage came out at 0.08. U14C U73A G86U: the self-cleavage was determined as 0.06.

Take U14C U52A A67U U81G U112A: the self-cleavage is 0.17. Consider U14C G114A U134A, for which the self-cleavage turned out to be 0.71. Regarding U14C U73A A124G, the self-cleavage turned out to be 1.13.

As to U14C U26C U52C G55A U104A, the self-cleavage amounted to 0.16. As for U14C U26C A65G A78G, the self-cleavage came to 0.77. As for U14C U46A A57U G97U, the self-cleavage is 0.05. In the case of U14C G75U U96C C111U U130C it was 0.08. Regarding U14C C113U A141G, the self-cleavage came out at 1.24. For U14C C90U U115C, the self-cleavage stood at 0.01. For U14C U45C G48A A79G A142G, the self-cleavage came to 1.08.

With U14C U29C A31G, the self-cleavage is 1.06. In the case of U14C U23A U143C it was 0.93; in that of U14C U15C U46C, 0; in that of U14C U52A A124G, 0.68. As for U14C U46C C68U A124U, the self-cleavage was 0.35. Next, U14C U26C A138G: 1.05; U14C U15C U47A: 2.47. For the variant U14C U47C U132C, the self-cleavage amounted to 0.77.

For the variant U14C U47G C101A U115C A117C, the self-cleavage is 1.6. In the case of U14C G60U U91C U119A, the self-cleavage came to 0.05.

With U14C U62C C95A, the self-cleavage was 0.01. In the case of U14C G54U A117C, the self-cleavage turned out to be 1.07. U14C U23C U87A: the self-cleavage came out at 0.16.
